# PubChem BioAssay AID504332 (National Center for Advancing Translational Sciences (NCATS), 2011)
# Among all 350,000 compounds or so, about 31,000 (8.9%) were called active. This list was built around the results that the source calls inconclusive (neither active nor inactive); the mix of calls is not that of the screen. Calls come from the whole dose curve; as a rule, active = well fitted inhibition curve with a large enough effect; inconclusive = small, poorly fitted or top-dose-only effect; inactive = no such curve, though single readings can be large or run the other way. A potency beside an inconclusive call is a rough fit, not a confirmed value.
# Target: Histone-lysine N-methyltransferase EHMT2 (Homo sapiens) (UniProt Q96KQ7)
# UniProt Q96KQ7, sequence (Q96KQ7 whole entry, looked up): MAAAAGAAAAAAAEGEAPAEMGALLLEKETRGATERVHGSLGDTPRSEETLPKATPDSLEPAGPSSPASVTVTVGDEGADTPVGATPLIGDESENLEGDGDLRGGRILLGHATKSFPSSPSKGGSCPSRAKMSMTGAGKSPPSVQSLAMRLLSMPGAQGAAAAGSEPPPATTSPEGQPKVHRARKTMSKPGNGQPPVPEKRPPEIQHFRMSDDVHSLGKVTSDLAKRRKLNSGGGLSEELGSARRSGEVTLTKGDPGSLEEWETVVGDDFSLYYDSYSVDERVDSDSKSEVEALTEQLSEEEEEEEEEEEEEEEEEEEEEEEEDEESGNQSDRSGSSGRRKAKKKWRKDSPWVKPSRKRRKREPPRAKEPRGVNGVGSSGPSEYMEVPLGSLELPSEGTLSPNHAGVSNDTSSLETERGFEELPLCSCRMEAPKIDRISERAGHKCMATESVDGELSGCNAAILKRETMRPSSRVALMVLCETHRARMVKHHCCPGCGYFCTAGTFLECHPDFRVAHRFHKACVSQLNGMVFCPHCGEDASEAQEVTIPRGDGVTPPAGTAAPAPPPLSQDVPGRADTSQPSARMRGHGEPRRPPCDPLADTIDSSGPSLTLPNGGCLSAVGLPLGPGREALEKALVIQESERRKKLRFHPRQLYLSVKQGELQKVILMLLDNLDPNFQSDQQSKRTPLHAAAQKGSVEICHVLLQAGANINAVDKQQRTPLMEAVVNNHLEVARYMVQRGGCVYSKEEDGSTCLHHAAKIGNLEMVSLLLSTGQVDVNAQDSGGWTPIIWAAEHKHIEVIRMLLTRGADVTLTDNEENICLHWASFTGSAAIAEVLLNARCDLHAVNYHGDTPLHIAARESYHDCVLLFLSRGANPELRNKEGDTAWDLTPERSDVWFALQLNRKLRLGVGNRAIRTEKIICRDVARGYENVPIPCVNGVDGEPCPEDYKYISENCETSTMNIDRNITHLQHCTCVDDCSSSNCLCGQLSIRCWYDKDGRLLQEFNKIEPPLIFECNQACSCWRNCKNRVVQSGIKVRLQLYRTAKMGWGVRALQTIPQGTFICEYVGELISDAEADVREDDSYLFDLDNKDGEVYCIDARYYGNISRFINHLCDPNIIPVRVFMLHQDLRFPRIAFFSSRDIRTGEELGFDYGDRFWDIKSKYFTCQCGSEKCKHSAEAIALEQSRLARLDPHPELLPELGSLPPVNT
# Assay: qHTS Assay for Inhibitors of Histone Lysine Methyltransferase G9a; note: nearly all actives have a fitted effect of over 75% in size
# Settings: G9a H3K9 monomethylation, AlphaScreen, 2 h; activity, negative = inhibition: at 59 µM (top of the series) unless noted
# How it was run: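 Compounds were preincubated with 20 nM G9a for 15 min, after which biotinylated H3K9 peptide (500 nM) and SAM (20 uM) started a 2 h room-temperature reaction. Monomethylated product was quantified by antibody-based AlphaScreen chemiluminescence.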
# % is set by controls: 0 for no effect and ±100 for the full control effect; potency is the fitted concentration of half-maximal effect; tags give direction and shape of the fitted curve.
SMILES,Potency,"activity, negative = inhibition"
O=C(CC1C(=O)NCCN1Cc1ccc(-c2ccccc2)cc1)NCCCn1cccn1 (stereo unspecified),"inconclusive: 79.4 µM [inhibitor, single point]",
CCOc1nc(NCCc2ccc(OC)c(OC)c2)nc(N2CCN(c3ccc(OC)cc3)CC2)n1,"inconclusive: 2.82 µM [inhibitor, partial curve, poor fit]",
CN(C)S(=O)(=O)c1ccc(NC(=O)CSc2ncnc3ccccc23)cc1,"inconclusive: 20 µM [inhibitor, single point]",
Cc1ccc(C(=O)NNC(=O)c2cc(C)nc3ccccc23)cc1,"inconclusive: 17.8 µM [inhibitor, single point]",
Cc1c(C(=O)NCc2ccco2)oc2ccccc12,inactive,
O=C(COC(=O)c1cccnc1Cl)NCCCc1ccccc1,,inactive: 17.3% [at 2.33 µM]
O=C(O)C1CN(c2nc(Cl)ccc2[N+](=O)[O-])C1,,inconclusive: -70.5% [inhibitor]
COc1ccc(/C=C/C(=O)NC(=S)NNC(=O)c2cccnc2)cc1,"inconclusive: 6.31 µM [inhibitor, full curve, poor fit]",
Cn1cc(C(C[N+](=O)[O-])c2ccccc2)c2ccccc21 (stereo unspecified),,inactive: -27.2% [at 2.33 µM]
Cc1ccc(C2SCC(=O)N2Cc2cn3ccsc3n2)o1 (stereo unspecified),"inconclusive: 39.8 µM [inhibitor, single point]",
CC(=O)N1c2ccccc2C2(O)N=C(C)SC12 (stereo unspecified),active: 1.41 µM,
N#C/C(=C/c1cccn1-c1cccc(C(=O)O)c1)c1ccc(F)cc1,,inconclusive: -92.8% [inhibitor]
COc1ccc(C2NC(=O)c3c(sc4c3CCN(C)C4)N2)cc1O (stereo unspecified),"inconclusive: 3.55 µM [inhibitor, partial curve, poor fit]",
CCOc1ccc(-c2ccc(C=O)o2)c([N+](=O)[O-])c1,"inconclusive: 31.6 µM [inhibitor, single point]",
Cc1cc(O)c(C2=Nc3ccccc3SC(c3ccc(Cl)cc3)C2)c(=O)o1 (stereo unspecified),"inconclusive: 31.6 µM [inhibitor, partial curve, poor fit]",
Cc1c(N2C(=O)c3ccccc3C2=O)c(=O)n(-c2ccccc2)n1C,inactive,
Cc1cc(=O)oc2cc(Oc3ccc([N+](=O)[O-])cc3[N+](=O)[O-])ccc12,"inconclusive: 39.8 µM [inhibitor, single point]",
N#Cc1cnn(-c2ccccc2)c1N,inactive,
O=C(O)c1ccc2c(=O)[nH]c(CN3CCOCC3)nc2c1,,inconclusive: -70.6% [inhibitor]
O=C(O)CCN(Cc1ccccc1)S(=O)(=O)c1c(Cl)cccc1Cl,"inconclusive: 39.8 µM [inhibitor, partial curve, poor fit]",
O=C(O)c1cc(-c2ccccc2)n(-c2ccc(Cl)cc2)n1,"inconclusive: 25.1 µM [inhibitor, full curve]",
CCN(CC)c1nc(N2CCN(C)CC2)nc2ccccc12,,inactive: 18.1% [at 0.501 µM]
CCC(CO)Nc1ncnc2c1cnn2-c1ccc(C)cc1 (stereo unspecified),inactive,

SMILES,Potency,"activity, negative = inhibition"
N.N.O=C(O)C1(C(=O)O)CCC1.[Pt+2],active: 0.282 µM,
CCOc1ccccc1CNC(=O)c1cnc2sc(N3CCCC3)nn2c1=O,inactive,
O=C(CSc1ccccc1F)Nc1ccc(N2CCOCC2)cc1,"inconclusive: 3.16 µM [inhibitor, single point]",
Cc1ccc(NC(=O)N2CCN(c3nnc(C)c4c(C)n(-c5ccccc5)nc34)CC2)cc1Cl,inactive,
Cc1ccc(S(=O)(=O)NC(CC(=O)NCc2ccco2)c2ccco2)cc1 (stereo unspecified),"inconclusive: 8.91 µM [inhibitor, partial curve, poor fit]",
O=S(=O)(c1cccs1)N1CCN(c2ccc(F)cc2)CC1,inactive,
C/C=C/c1ccc(OCCCNC)c(OC)c1,active: 15.8 µM,
COCc1c(Br)c(C)nc(OCC(=O)N/N=C/c2ccco2)c1C#N,"inconclusive: 56.2 µM [inhibitor, partial curve]",
Cc1c(Cl)cccc1NC(=O)CNC(=O)Cc1c[nH]c2ccccc12,,inactive: 15.5% [at 12.7 µM]
O=C(NCCCN1CCOCC1)c1sc2cc(F)ccc2c1Cl,"inconclusive: 44.7 µM [inhibitor, partial curve]",
Cc1cc(N)ccc1-n1c(C)ccc1C,active: 14.1 µM,
COc1ccc(-c2cc(=O)oc3c(C)c(OCc4nn[nH]n4)ccc23)cc1,"inconclusive: 79.4 µM [inhibitor, single point]",
Cc1nnc(SCC2=C(C(=O)O)N3C(=O)C(NC(=O)Cn4nc(C(F)F)c(Cl)c4C)C3SC2)s1 (stereo unspecified),"inconclusive: 39.8 µM [inhibitor, partial curve, poor fit]",
CCOc1ccc(NS(=O)(=O)c2ccc(C(=O)N3CCCC(C)C3)cc2)cc1 (stereo unspecified),"inconclusive: 89.1 µM [inhibitor, partial curve, poor fit]",
Cc1ccc(NC(=O)C(=O)c2ccc(C)cc2)cc1,"inconclusive: 50.1 µM [inhibitor, partial curve, poor fit]",
O=C(CN1CCN(CC(=O)Nc2ccccn2)CC1)Nc1ccccn1,"inconclusive: 2.82 µM [inhibitor, partial curve, poor fit]",
COC(=O)Nc1ccc(S(=O)(=O)N2CCCc3ccccc32)cc1,inactive,
O=C1c2ccccc2C(=O)C1Cc1cccc2ccccc12,active: 50.1 µM,
CN(Cc1nc(-c2ccc3c(c2)OCO3)no1)CC1(N2CCOCC2)CCCCC1,"inconclusive: 4.47 µM [inhibitor, partial curve, poor fit]",
Cc1ccc(S(=O)(=O)N2CCN(S(=O)(=O)N(C)C)CC2)cc1,"inconclusive: 79.4 µM [inhibitor, single point]",
CC(C)(C)C(=O)c1cnc(Nc2ccccc2)s1,inactive,
Cc1cc(C)cc(N(C(=O)CNS(=O)(=O)c2ccccc2)C(C(=O)NCc2ccccc2)c2ccc(C)o2)c1 (stereo unspecified),"inconclusive: 31.6 µM [inhibitor, single point]",
Cc1cc(C)c2nc(-c3cccnc3)cc(C(=O)NC(C)c3cnn(C)c3C)c2c1 (stereo unspecified),,inactive: 28.5% [at 12.7 µM]
